# The full ranking holds about 110,000 compounds; the median of “z-score” is about -0.1, and the highest 2% start at about 2. The list shows a part of the results. Activity calls are given as the source filed them.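 Rule for the calls: active = z-score in the third read window above 3 or below -3; inactive = the rest.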
# Target: Metabotropic glutamate receptor 8 (Rattus norvegicus) (UniProt P70579)
# Assay: mGluR8 Gi/Go-coupled signaling modulation – cell-based, rat, thallium flux, HTS, primary screen (AID 488969)
# Details: HEK293 rat mGluR8, GIRK (G protein-gated inwardly rectifying potassium channel) thallium flux, FluoZin2; at 10 µM; stronger effect = higher value; submaximal glutamate (EC20) added with thallium
# Chain of UniProt P70579 (P70579 whole entry, looked up): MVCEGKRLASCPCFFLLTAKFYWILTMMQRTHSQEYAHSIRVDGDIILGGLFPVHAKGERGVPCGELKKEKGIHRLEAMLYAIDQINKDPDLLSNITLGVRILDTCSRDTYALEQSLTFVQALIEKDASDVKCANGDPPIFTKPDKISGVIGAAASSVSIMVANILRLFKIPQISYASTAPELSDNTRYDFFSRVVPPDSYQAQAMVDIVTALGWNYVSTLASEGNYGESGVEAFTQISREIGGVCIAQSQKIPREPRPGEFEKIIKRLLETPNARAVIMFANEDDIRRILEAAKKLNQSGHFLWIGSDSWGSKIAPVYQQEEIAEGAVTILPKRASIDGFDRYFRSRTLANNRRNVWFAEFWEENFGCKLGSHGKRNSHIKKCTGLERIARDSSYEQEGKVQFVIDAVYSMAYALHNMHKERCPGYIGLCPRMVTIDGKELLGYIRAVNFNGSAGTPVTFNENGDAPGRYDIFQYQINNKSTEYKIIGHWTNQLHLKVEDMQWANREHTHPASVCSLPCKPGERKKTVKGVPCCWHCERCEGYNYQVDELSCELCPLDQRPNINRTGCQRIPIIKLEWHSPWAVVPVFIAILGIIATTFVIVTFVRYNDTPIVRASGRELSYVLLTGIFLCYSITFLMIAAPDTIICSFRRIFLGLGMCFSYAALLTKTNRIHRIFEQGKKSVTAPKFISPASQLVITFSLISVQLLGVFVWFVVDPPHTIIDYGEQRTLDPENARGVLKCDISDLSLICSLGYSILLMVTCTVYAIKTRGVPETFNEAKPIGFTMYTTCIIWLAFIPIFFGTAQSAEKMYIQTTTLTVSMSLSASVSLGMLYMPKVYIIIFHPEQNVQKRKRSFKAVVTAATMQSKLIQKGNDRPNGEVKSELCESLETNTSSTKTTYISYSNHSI
row,Structure (SMILES),z-score
1,O=C(NC1CCCCC1)C1CCCN(S(=O)(=O)c2cnc[nH]2)C1 (stereo not given),0.801
2,FC(F)(F)c1cc(-c2ccccc2)nc(NC2CCCC2)n1,0.192
3,C/C(=C\C(=S)Nc1ccccc1)Nc1ccccc1,0.249
4,c1ccc(CN2CCN(C3=Nc4cccc5cccc3c45)CC2)cc1,0.281
5,CC1CCCCC1NC(=O)C1CCCN1S(=O)(=O)c1cccc2nsnc12 (stereo not given),0.081
6,N#Cc1ccsc1NC(=O)CSc1ncn[nH]1,-0.0304
7,O=C(OC1CCOC1=O)c1cc(-c2ccccc2)nc2ccccc12 (stereo not given),-0.603
8,Cc1cccc(OCc2nnc(SCC(=O)N3c4ccccc4CC3C)n2C)c1C (stereo not given),-0.51
9,CCOc1ccccc1Oc1ccc(C(F)(F)F)cn1,0.241
10,COc1cccc(C(=O)N2CCN(c3ncccn3)CC2)c1,-0.445
11,O=C(NCc1cccnc1)/C(=C/c1ccc(-c2cccc(Cl)c2)o1)S(=O)(=O)c1ccccc1,-0.494
12,Cc1cc2cc(CNC(=O)CC(C)C)ccc2n1C,-0.375
13,COc1ccc(/C=C2\C(=O)N(Cc3ccc(F)cc3)CC(=O)N2Cc2ccccc2)cc1,-0.183
14,Cc1ccc(NC(=S)c2ccccc2)cc1,0.00629
15,CCOC(=O)CC(C#N)c1c[nH]c2ccccc12 (stereo not given),-0.0366
16,CCN(CC(=O)Nc1ccccc1C(=O)OC)S(=O)(=O)c1ccccc1,-0.277
17,C=CCN(CC=C)Cc1c(C)[nH]c2ccc(C(=O)OCC)cc2c1=O,-0.266
18,COCCNC(=O)c1ccccc1NC(=O)c1ccccc1N(C)S(=O)(=O)c1ccccc1,-0.125
19,COC(=O)c1ccccc1NC(=S)NC(=O)c1ccc2ccccc2c1,0.231
20,COc1ccc(NC(=O)C23CC4CC(C2)CC(c2ccc(C)cc2)(C4)C3)cc1,-0.339

row,Structure (SMILES),z-score
1,Cc1cc(C)nc(SCc2ccc(C(=O)N/N=C/c3cccc(O)c3O)cc2)n1,-0.453
2,CCOC(=O)C(=NCCCN(C)C)NNc1ccc(Br)cc1,-0.0604
3,CC1CCN(c2c(NCc3ccc(C(=O)N4c5ccccc5CC4C)cc3)c(=O)c2=O)CC1 (stereo not given),-0.373
4,COCc1nnc(NC(=O)c2ccccc2[N+](=O)[O-])s1,-0.228
5,Cc1cc(C)nc(SCC(=O)Nc2sc3c(c2C#N)CCC(C)C3)n1 (stereo not given),-0.257
6,CCn1c(SCC(=O)c2[nH]c(C)c(C(C)=O)c2C)nnc1-c1ccccc1,-0.0524
7,C#CC(CC)(CC)NC(=S)Nc1cccc(C(C)=O)c1,-0.3
8,O=C(COc1ccc(Cl)cc1)N1CCN(C(=O)c2cccc(F)c2)CC1,0.465
9,Cc1ccc(NC(=O)c2cc(C)n(-c3cccc(C)c3)c2C)cc1,-0.253
10,COc1cccc(N(CC(=O)Nc2ccc3c(c2)OCO3)S(=O)(=O)c2ccccc2)c1,0.127
11,CCOC(=O)C1=C(C)NC2=C(C(=O)C(C(=O)OCC)C(c3ccccc3OC)C2)C1c1ccccn1 (stereo not given),active: -3.33
12,COCCN=C1Sc2nc3ccc(C)cc3cc2CN1Cc1ccco1,-0.504
13,COC(=O)c1ccccc1NC(=O)N1c2ccccc2CC1C (stereo not given),-0.864
14,O=[N+]([O-])c1ccc(N2CCN(S(=O)(=O)c3ccccc3)CC2)cc1N1CCc2ccccc2C1,-0.106
15,CCC(=O)c1cc2c(C)cc(=O)oc2c(C)c1OC,-0.439
16,Cn1c(-c2ccccc2)cnc1SCC(N)=O,0.64
17,COc1ccc(CN(C(=O)c2nsc(Cl)c2Cl)C(C(=O)NC2CCCC2)c2ccc(OC)cc2)cc1 (stereo not given),-0.361
18,Cn1nnc(NC(=O)COc2ccc(C3CCCCC3)cc2)n1,0.85
19,COc1ccc(C2(CNC(=O)c3cccc([N+](=O)[O-])c3)CCCCC2)cc1OC,-0.559
20,Cc1cc(C)nc(SCC(=O)N/N=C/c2cccn2-c2cccc(C(F)(F)F)c2)n1,0.12

row,Structure (SMILES),z-score
1,CN(C)C(=O)CN(c1ccc(F)c(Cl)c1)S(C)(=O)=O,0.00105
2,Cc1ccccc1OCc1nc2c3cnn(C)c3ncn2n1,0.676
3,Oc1ccc(N=Cc2sc3ccccc3c2Cl)cc1,-0.0453
4,CCOC(=O)C(NC(=O)c1ccc(OC)cc1)(OCC1(CC)COC1)C(F)(F)F (stereo not given),0.00709
5,NNC(=O)[C@@H]1C[C@@H]1c1ccccc1,0.0986
6,c1ccc(-n2ncc3c(N4CCCC4)ncnc32)cc1,-0.503
7,CC(=O)NC(Cc1ccc(F)cc1)C(=O)NC1CCN(c2nnnn2-c2ccccc2)CC1 (stereo not given),-1.58
8,CCCn1cnc2c(=O)oc3ccccc3c21,-0.399
9,CCCCN1C(=O)C(CC(=O)NCC)SC1=Nc1ccccc1 (stereo not given),-0.0975
10,CC(=O)c1ccc(NC(=O)c2ccc(COc3ccccc3[N+](=O)[O-])o2)cc1,-0.417
11,CN=Cc1nc(-c2ccccc2)oc1O,1.62
12,COc1ccccc1/C=C/C(=O)c1cc(Br)ccc1OC(=O)c1ccco1,-0.11
13,CCOC(=O)C(C(=O)OCC)C(C)C#CCN1CCCCC1 (stereo not given),-0.145
14,CC1(C)CC(O)(CNCc2ccc3c(c2)OCO3)CCO1 (stereo not given),0.108
15,CCC(=O)N/C(=N/c1nc(C)cc(C)n1)Nc1cccc(OC)c1,0.0375
16,COC(=O)c1ccc(N=C2S/C(=C\c3cc(C)n(-c4cccnc4)c3C)C(=O)N2C)cc1,0.0719
17,CCOC(=O)C(C)/C(C)=N/NC(=O)c1cc2ccccc2cc1O (stereo not given),-0.195
18,COc1ccccc1C(=O)N/N=C/c1ccc(Cl)s1,-0.273
19,CN1CCN(S(=O)(=O)c2ccc(NC(=O)c3ccc(Br)s3)cc2)CC1,0.431
20,O=C(Nc1ccc(Cl)cc1)OCCn1nnnc1C(c1ccccc1)N1CCOCC1 (stereo not given),-0.796

# Source: PubChem BioAssay AID488969 (Vanderbilt High Throughput Screening Facility, 2010)
